# Measured values from PubChem BioAssay (Tox21).
# Several values for one entry are separate records, joined by “and”; a condition that tells them apart may be missing. Equal values may be shown once. This list was built around the results that the source calls inconclusive (neither active nor inactive); the mix of calls is not that of the screen. For part of these data: A potency beside an inconclusive call is a rough fit, not a confirmed value. Activity calls are given as the source filed them. Unless noted, calls follow the shape of the dose curve; as a rule, active = well fitted curve in the direction sought with a large enough effect in the repeat runs; inconclusive = weak or mixed curves; inactive = no such curve, though single readings can be large; an effect the other way counts as inactive or inconclusive.
# Key:
# [1] = molecular target: Peroxisome proliferator-activated receptor gamma (Homo sapiens) (UniProt P37231); assay: qHTS assay to identify small molecule agonists of the peroxisome proliferator-activated receptor gamma (PPARg) signaling pathway (AID 743094; active = well fitted activation curve with a large enough effect in the signal ratio in the repeat runs, not every such curve was filed as active; inconclusive = weak or mixed curves, or effect the other way; inactive = no such curve, though single readings can be large or run the other way; the % refers to the signal ratio; also: potency is read from the fitted curve at half-maximal effect; as to activation: % is scaled to controls: 0 for no effect and ±100 for the full control effect); conditions: HEK293H PPARg-UAS-bla, beta-lactamase FRET ratio, 17 h; activation: at 57 µM (top of the series) unless noted
# Summary of the method: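 Agonist activity was taken from a beta-lactamase reporter (FRET substrate, 1 h at room temperature) in HEK293H cells carrying a PPARg UAS-bla construct. Compounds in DMSO were incubated 17 h at 37C after a 5 h cell pre-incubation.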
# [2] = qHTS assay to identify small molecule antagonists of the vitamin D receptor (VDR) signaling pathway - cell viability counter screen (AID 743225); conditions: VDR-bla HEK293T viability, CellTiter-Glo luminescence, 16 h; viability change, negative = cytotoxic: at 61 µM (top of the series) unless noted; also: nearly all actives have a fitted effect of over 50% in size; also: potency is read from the fitted curve at half-maximal effect; as to viability change, negative = cytotoxic: % is scaled to controls: 0 for no effect and ±100 for the full control effect
# Summary of the method: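 Same-well multiplex: following 16 h treatment of HEK 293T cells carrying a UAS-driven beta-lactamase reporter with compound and agonist (3 nM final), and a 2 h FRET substrate step, CellTiter-Glo was added and luminescence read after 30 min.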
# [3] = qHTS RealTime-Glo MT Cell Viability Assay in HEK293 cells - 24 hour (AID 1224886); also: nearly all actives have a fitted effect of over 50% in size; also: potency is read from the fitted curve at half-maximal effect
# Summary of the method: (§1)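 Viability tracked continuously by luminescence as live cells reduce a prosubstrate for NanoLuc; HEK293 cells preincubated 5 h, compound-treated at 37 C, and read at 0, 8, 16, 24, 32 and 40 h.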
# [4] = molecular target: Nuclear receptor subfamily 1 group I member 2 (Homo sapiens) (UniProt O75469); assay: Human pregnane X receptor (PXR) small molecule agonists, qHTS assay (AID 1346982); also: nearly all actives have a fitted effect of over 35% in size; also: potency is read from the fitted curve at half-maximal effect
# Summary of the method: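 Agonist mode: luminescence from ONE-Glo after 24 h compound exposure at 37C in HepG2 cells carrying hPXR-responsive CYP3A4 luciferase, plated in charcoal-stripped serum medium 5 h beforehand.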
# [5] = qHTS assay to identify small molecule agonists of H2AX - cell viability counter screen (AID 1224847; calls by dose curve; also: nearly all actives have a fitted effect of over 30% in size; also: potency is read from the fitted curve at half-maximal effect)
# Summary of the method: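 For this counter screen, overnight-attached CHO-K1 cells received test compounds (15 concentrations, 0.76% DMSO final); 3 hr later at 37C, CellTiter-Glo reagent was added and luminescence recorded after 30 min at room temperature.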
# [6] = qHTS assay for identifying genotoxic compounds that show differential cytotoxicity against isogenic chicken DT40 cell lines with known DNA damage response pathways - Rad54/Ku70 mutant cell line (AID 743015); conditions: DT40 Rad54/Ku70 mutant viability, CellTiter-Glo, 40 h; activity change, negative = cytotoxicity: at 66.8 µM (top of the series); also: potency is read from the fitted curve at half-maximal effect; nearly all actives have a fitted effect of over 60% in size
# [7] = qHTS assay to identify small molecule antagonists of the peroxisome proliferator-activated receptor delta (PPARd) signaling pathway - cell viability counter screen (AID 743213); conditions: PPARd-bla HEK293H viability, CellTiter-Glo luminescence, 17 h; viability change, negative = cytotoxic: at 62 µM (top of the series) unless noted; also: nearly all actives have a fitted effect of over 50% in size; also: potency is read from the fitted curve at half-maximal effect
# Summary of the method: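 Cytotoxicity counter screen: CellTiter-Glo luminescence read 30 min after addition, in the same wells as the reporter assay. There, PPARd UAS-bla HEK293H cells (3000/well) were treated 17 h at 37 C with compound and 300 nM L165041.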
# [8] = molecular target: Peroxisome proliferator-activated receptor delta (Homo sapiens) (UniProt Q03181); assay: qHTS assay to identify small molecule antagonists of the peroxisome proliferator-activated receptor delta (PPARd) signaling pathway (AID 743215; active = well fitted inhibition curve with a large enough effect in the signal ratio in the repeat runs, not every such curve was filed as active; inconclusive = weak or mixed curves, or effect the other way; inactive = no such curve, though single readings can be large or run the other way; the % refers to the signal ratio;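 also: cells stimulated with agonist L165041 at 300 nM final during compound exposure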; also: potency is read from the fitted curve at half-maximal effect); conditions: HEK293H PPARd-UAS-bla, beta-lactamase FRET ratio, antagonist, 17 h; ratio activity, negative = inhibition: at 62 µM (top of the series) unless noted
# Summary of the method: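 Agonist L165041 (300 nM final) added with compound to PPARd-bla HEK293H UAS-bla reporter cells; 17 h incubation at 37 C. Read-out: LiveBLAzer FRET substrate, 2 h at room temperature, fluorescence intensity.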
# [9] = molecular target: Thyrotropin receptor (Homo sapiens) (UniProt P16473); assay: qHTS assay to identify small molecule agonists of the thyroid stimulating hormone receptor (TSHR) signaling pathway (AID 1224843; calls by dose curve; also: nearly all actives have a fitted effect of over 45% in size; also: potency is read from the fitted curve at half-maximal effect); conditions: TSHR-HEK293 cells, cAMP HTRF, agonist mode, 30 min; activation: at 92.4 µM (top of the series) unless noted
# Summary of the method: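 Agonist-mode screen: TSHR HEK293 cells received test chemicals for half an hour at room temperature, then HTRF cAMP detection reagents for one hour prior to fluorescence measurement. Each chemical ran as a 15-concentration series, triplicated.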
# [10] = qHTS RealTime-Glo MT Cell Viability Assay in HEK293 cells - 40 hour (AID 1224874); conditions: RealTime-Glo luminescence; max response: stronger effect = lower value; also: nearly all actives have a fitted effect of over 50% in size; also: potency is read from the fitted curve at half-maximal effect
# Summary of the method: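 Luminescence, which tracks viable cell number through reduction of the prosubstrate to a NanoLuc substrate, was read over continuous 37 C culture. Cells (600/well) were premixed with reagent and rested 5 h before 23 nL of compound in DMSO was pinned.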
# [11] = qHTS assay to identify small molecule antagonists of the progesterone receptor (PR) signaling pathway - cell viability counter screen (AID 1346798); also: nearly all actives have a fitted effect of over 50% in size; also: potency is read from the fitted curve at half-maximal effect
# Summary of the method: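 CellTiter-Glo luminescence; PR-UAS-bla HEK293T, 3,000 cells/well; compound + R5020, 16 hr, 37C/5% CO2; 30 min RT before read.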
# [12] = qHTS RealTime-Glo MT Cell Viability Assay in HEK293 cells - 32 hour (AID 1224868); also: nearly all actives have a fitted effect of over 50% in size; also: potency is read from the fitted curve at half-maximal effect
# Summary of the method: as §1
# [13] = qHTS RealTime-Glo MT Cell Viability Assay in HEK293 cells - 16 hour (AID 1224872); also: nearly all actives have a fitted effect of over 50% in size; also: potency is read from the fitted curve at half-maximal effect
# Summary of the method: as §1
# [14] = qHTS assay to identify small molecule agonists of the estrogen receptor alpha (ER-alpha) signaling pathway in the presence of an antagonist - cell viability counter screen (AID 1259386); also: potency is read from the fitted curve at half-maximal effect; nearly all actives have a fitted effect of over 30% in size
# Summary of the method: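 Compounds tested at 15 concentrations for 22 h at 37C alongside 10.0nM (final) ICI-182,780 antagonist, in VM7Luc4E2 cells grown in phenol red-free, charcoal-stripped medium. Viability read by CellTiter-Fluor fluorescence after 1 h reagent incubation.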
# [15] = molecular target: Estrogen receptor beta (Homo sapiens) (UniProt Q92731); assay: qHTS assay to identify small molecule antagonists of the estrogen receptor beta (ER-beta) signaling pathway (AID 1259378; active = well fitted inhibition curve with a large enough effect in the signal ratio in the repeat runs, not every such curve was filed as active; inconclusive = weak or mixed curves, or effect the other way; inactive = no such curve, though single readings can be large or run the other way; the % refers to the signal ratio; also: % is scaled to controls: 0 for no effect and ±100 for the full control effect); conditions: ER-beta-UAS-bla HEK293T, beta-lactamase FRET ratio, 16 h; activity, negative = inhibition: at 92.4 µM (top of the series) unless noted
# Summary of the method: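 ER-beta-UAS-bla HEK293T cells in 2% charcoal-stripped FBS medium treated with compound plus 1nM final 17-beta-estradiol for 16 hr at 37C. Beta-lactamase reporter read by FRET substrate fluorescence after 2 hours at room temperature.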
# [16] = qHTS assay to identify small molecule agonists of the retinoic acid receptor (RAR) signaling pathway (AID 1159553); conditions: C3RL4 RARE luciferase reporter, agonist, 6 h; activation: at 73.3 µM (top of the series) unless noted; also: potency is read from the fitted curve at half-maximal effect
# Summary of the method: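 Luminescence was measured 30 min after luciferase reagent addition at room temperature. Before that, C3RL4 reporter cells (1,000 per well, plated overnight) were treated with compound for 6 hr at 37 C and 5% CO2.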
# [17] = molecular target: Estrogen receptor beta (Homo sapiens) (UniProt Q92731); assay: qHTS assay to identify small molecule agonists of the estrogen receptor beta (ER-beta) signaling pathway (AID 1259377; active = well fitted activation curve with a large enough effect in the signal ratio in the repeat runs, not every such curve was filed as active; inconclusive = weak or mixed curves, or effect the other way; the % refers to the signal ratio; also: % is scaled to controls: 0 for no effect and ±100 for the full control effect); conditions: ER-beta-UAS-bla HEK293T, beta-lactamase FRET ratio, 16 h; activation: at 92.4 µM (top of the series) unless noted
# Summary of the method: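 qHTS in ER-beta-UAS-bla HEK293T cells: 6 hr settling, then 16 hr compound at 37C, then LiveBLAzer substrate 2 h at RT before fluorescence reading.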
# [18] = qHTS assay to identify small molecule antagonists of the peroxisome proliferator-activated receptor gamma (PPARg) signaling pathway - cell viability counter screen (AID 743194); conditions: PPARg-bla HEK293H viability, CellTiter-Glo luminescence, 17 h; Potency: co-treated with 50 nM rosiglitazone unless noted; activity change, negative = cytotoxicity: at 62.6 µM (top of the series), co-treated with 50 nM rosiglitazone unless noted; also: % is scaled to controls: 0 for no effect and ±100 for the full control effect; nearly all actives have a fitted effect of over 55% in size
# Summary of the method: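 Cytotoxicity counter screen in PPARg-bla HEK293H cells, same wells as reporter assay. Compounds plus 50 nM rosiglitazone (final) for 17 h at 37 C, then viability read by CellTiter-Glo luminescence.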
# [19] = qHTS assay to identify small molecule agonists of the estrogen receptor beta (ER-beta) signaling pathway - cell viability counter screen (AID 1259380); also: nearly all actives have a fitted effect of over 30% in size; also: potency is read from the fitted curve at half-maximal effect
# Summary of the method: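 Cell viability counter screen: CellTiter-Glo luminescence (30 min, room temperature) measured in the same wells as the beta-lactamase readout, after 16 hr compound exposure at 37C of ER-beta-bla HEK293T cells in 2% charcoal-stripped FBS medium.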
# [20] = qHTS assay for small molecule agonists of the p53 signaling pathway (AID 651631; calls by dose curve; also: nearly all actives have a fitted effect of over 15% in size; also: potency is read from the fitted curve at half-maximal effect); conditions: HCT-116 p53RE-bla reporter, beta-lactamase FRET ratio, 16 h; activation: at 73.3 µM (top of the series) unless noted
# Summary of the method: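 Testing took place in human colorectal HCT-116 cells with stable p53RE-driven beta-lactamase. After 16 h of compound exposure at 37 °C, a FRET substrate was added and fluorescence recorded 2 h later.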
# Tags tell the direction and shape of the fitted curve or compound fluorescence and quenching.
# UniProt Q03181, sequence (Q03181 whole entry, looked up): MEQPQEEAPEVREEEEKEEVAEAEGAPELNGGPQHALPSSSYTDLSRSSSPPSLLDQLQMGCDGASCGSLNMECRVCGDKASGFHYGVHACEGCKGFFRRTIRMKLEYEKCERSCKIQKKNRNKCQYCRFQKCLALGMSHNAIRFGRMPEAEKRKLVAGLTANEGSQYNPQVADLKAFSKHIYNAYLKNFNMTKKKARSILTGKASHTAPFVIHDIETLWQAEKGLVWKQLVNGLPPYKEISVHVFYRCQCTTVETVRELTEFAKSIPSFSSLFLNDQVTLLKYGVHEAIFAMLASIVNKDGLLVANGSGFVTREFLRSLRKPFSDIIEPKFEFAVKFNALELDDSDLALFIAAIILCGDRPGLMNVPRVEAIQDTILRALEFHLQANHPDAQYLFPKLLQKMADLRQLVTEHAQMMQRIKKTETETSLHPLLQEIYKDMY
# UniProt O75469, sequence (O75469 whole entry, looked up): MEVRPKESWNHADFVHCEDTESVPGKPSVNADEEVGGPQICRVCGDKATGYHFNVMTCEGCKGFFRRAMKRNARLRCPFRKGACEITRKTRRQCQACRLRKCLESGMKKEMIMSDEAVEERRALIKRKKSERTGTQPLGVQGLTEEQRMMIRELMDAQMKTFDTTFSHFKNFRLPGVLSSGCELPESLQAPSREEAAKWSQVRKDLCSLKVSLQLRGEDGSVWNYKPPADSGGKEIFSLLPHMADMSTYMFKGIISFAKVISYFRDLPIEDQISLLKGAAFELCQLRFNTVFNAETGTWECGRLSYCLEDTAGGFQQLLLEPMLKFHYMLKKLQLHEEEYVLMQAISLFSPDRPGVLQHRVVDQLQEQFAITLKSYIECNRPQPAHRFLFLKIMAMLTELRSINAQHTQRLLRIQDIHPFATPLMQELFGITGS
# UniProt Q92731, sequence (Q92731 whole entry, looked up): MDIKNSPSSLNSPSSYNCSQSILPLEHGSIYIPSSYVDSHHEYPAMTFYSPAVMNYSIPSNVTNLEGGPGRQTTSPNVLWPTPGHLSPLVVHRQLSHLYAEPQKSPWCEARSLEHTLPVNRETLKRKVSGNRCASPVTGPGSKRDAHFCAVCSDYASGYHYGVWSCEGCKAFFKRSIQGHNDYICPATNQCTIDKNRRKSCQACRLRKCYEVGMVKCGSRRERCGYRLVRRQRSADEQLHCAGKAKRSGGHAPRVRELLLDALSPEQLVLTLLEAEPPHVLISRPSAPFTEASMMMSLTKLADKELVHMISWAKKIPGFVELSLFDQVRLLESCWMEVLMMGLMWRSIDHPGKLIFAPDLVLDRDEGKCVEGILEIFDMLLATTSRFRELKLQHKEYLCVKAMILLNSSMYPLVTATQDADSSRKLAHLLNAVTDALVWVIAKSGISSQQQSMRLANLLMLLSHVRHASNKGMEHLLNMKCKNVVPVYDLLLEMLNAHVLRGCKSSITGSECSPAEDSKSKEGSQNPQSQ
# UniProt P37231, sequence (P37231 whole entry, looked up): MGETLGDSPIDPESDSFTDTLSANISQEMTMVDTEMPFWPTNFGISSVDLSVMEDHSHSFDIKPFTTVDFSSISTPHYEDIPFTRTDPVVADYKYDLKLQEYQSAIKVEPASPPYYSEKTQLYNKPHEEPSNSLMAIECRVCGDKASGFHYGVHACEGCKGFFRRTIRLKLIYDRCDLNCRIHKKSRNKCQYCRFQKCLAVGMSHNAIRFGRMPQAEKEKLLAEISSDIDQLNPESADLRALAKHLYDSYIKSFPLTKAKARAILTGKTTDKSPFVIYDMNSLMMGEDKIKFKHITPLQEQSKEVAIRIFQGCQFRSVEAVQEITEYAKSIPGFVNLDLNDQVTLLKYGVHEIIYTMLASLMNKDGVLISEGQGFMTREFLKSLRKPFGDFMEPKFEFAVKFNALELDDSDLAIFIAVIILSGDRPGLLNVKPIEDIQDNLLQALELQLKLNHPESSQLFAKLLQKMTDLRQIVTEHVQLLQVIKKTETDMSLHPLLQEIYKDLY
# UniProt P16473, sequence (P16473 whole entry, looked up): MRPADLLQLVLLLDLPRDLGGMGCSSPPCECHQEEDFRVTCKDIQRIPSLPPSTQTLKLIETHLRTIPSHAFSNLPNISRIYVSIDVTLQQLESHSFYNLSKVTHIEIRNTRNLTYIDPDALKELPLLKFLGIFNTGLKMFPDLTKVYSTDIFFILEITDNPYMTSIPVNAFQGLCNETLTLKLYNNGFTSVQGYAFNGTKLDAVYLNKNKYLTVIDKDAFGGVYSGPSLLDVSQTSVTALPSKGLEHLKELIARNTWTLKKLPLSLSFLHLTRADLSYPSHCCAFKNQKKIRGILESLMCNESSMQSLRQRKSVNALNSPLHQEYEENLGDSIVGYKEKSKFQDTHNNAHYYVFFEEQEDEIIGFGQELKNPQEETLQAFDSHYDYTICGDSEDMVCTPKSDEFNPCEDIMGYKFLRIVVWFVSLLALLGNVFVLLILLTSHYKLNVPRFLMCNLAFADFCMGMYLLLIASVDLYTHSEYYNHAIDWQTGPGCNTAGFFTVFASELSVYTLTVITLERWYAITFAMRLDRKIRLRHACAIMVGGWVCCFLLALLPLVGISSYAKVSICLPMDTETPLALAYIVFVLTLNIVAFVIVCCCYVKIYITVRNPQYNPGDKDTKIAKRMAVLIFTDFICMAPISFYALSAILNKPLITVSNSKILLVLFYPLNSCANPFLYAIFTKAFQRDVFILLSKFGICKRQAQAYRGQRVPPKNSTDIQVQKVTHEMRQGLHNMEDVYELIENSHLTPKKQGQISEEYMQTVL
smiles,measurement,setting,value
CC1CN1P(=O)(N1CC1C)N1CC1C (stereo not drawn),activation,[1],inconclusive: -15%
same,Potency,[2],inactive
same,Potency,[3],inactive
same,Potency,[4],inactive
CC(C)O.CC(C)O.OCCN(CCO)CCO.OCCN(CCO)CCO.[Ti],Potency,[2],"inconclusive: 27.5 µM [rising, partial curve, poor fit]"
same,Potency,[5],"inconclusive: 2.53 µM [cytotoxic, single point]"
Cc1cc(Cl)ccc1O,Potency,[6],"inconclusive: 59.3 µM [rising, partial curve, poor fit]"
same,Potency,[7],inactive
same,Potency,[5],"inconclusive: 110 µM [cytotoxic, partial curve, poor fit] and inconclusive: 101 µM [cytotoxic, partial curve, poor fit]"
same,Potency,[4],inactive
CCCCOC(=O)[C@@H](C)Oc1ccc(Oc2ccc(C#N)cc2F)cc1,Potency,[8],"inconclusive: 17.3 µM [rising, partial curve, poor fit]"
same,Potency,[9],"inconclusive: 4.83 µM [inhibitor, full curve]"
same,Potency,[10],active: 38.7 µM
same,Potency,[11],inactive
CC(Cl)CN(C)C (stereo not drawn),activation,[9],inconclusive: -11%
same,Potency,[5],inactive
same,Potency,[12],"inconclusive: 54.9 µM [rising, single point]"
same,Potency,[13],"inconclusive: 54.9 µM [rising, single point]"
same,Potency,[10],"inconclusive: 54.9 µM [rising, single point]"
same,Potency,[3],"inconclusive: 54.9 µM [rising, single point]"
CCOC(=O)CCl,Potency,[8],inactive
same,"viability change, negative = cytotoxic",[2],inconclusive: -4.21% [cytotoxic]
same,Potency,[12],inactive
same,Potency,[13],inactive
same,Potency,[4],"inconclusive: 58.3 µM [activator, single point]"
Nc1c(Oc2ccccc2)cc(O)c2c1C(=O)c1ccccc1C2=O,Potency,[13],active: 10.7 µM
same,Potency,[10],"inconclusive: 21.3 µM [cytotoxic, partial curve]"
same,Potency,[3],active: 21.3 µM
same,Potency,[14],active: 26.6 µM
same,Potency,[11],inactive
CN1CCC(N(Cc2ccccc2)c2ccccc2)CC1,Potency,[7],"inconclusive: 9.44 µM [cytotoxic, full curve, poor fit]"
same,Potency,[9],active: 13.3 µM
same,"activity, negative = inhibition",[15],inconclusive: -27.1% [at 42.5 µM]
CC(C)COC(=O)c1ccccc1C(=O)OCC(C)C,Potency,[6],"active: 48.6 µM and inconclusive: 27.3 µM [cytotoxic, full curve]"
same,activation,[16],inconclusive: -4.44% [phenotype inactive]
same,Potency,[3],inactive
same,activation,[17],inconclusive: 13.6%
same,Potency,[11],inactive
NNCCO,Potency,[7],"inconclusive: 5.49 µM [cytotoxic, single point]"
same,activation,[17],inconclusive: 10.3%
CCCCc1ccc(O)cc1,Potency,[1],inactive
same,Potency,[18],inactive
same,Potency,[13],"inconclusive: 19.5 µM [cytotoxic, partial curve]"
same,Potency,[3],active: 19.5 µM
COc1cc(Cl)c(OC)cc1Cl,Potency,[6],"inconclusive: 68.6 µM [cytotoxic, partial curve, poor fit]"
same,Potency,[17],inactive
COC(=O)C1=CCCN(C)C1,Potency,[5],inactive
Brc1ccc(Br)cc1,Potency,[6],"inconclusive: 77 µM [cytotoxic, partial curve, poor fit]"
same,"ratio activity, negative = inhibition",[8],inconclusive: -39.9%
same,Potency,[16],"inconclusive: 77 µM [inhibitor, single point]"
same,Potency,[17],inactive
same,Potency,[19],inactive
CCC(=O)C(CCN(C)C)(c1ccccc1)c1ccccc1,Potency,[16],inactive
CCOC(=O)N(C)C(=O)CSP(=S)(OCC)OCC,Potency,[7],inactive
same,Potency,[8],"inconclusive: 0.123 µM [fluorescent, full curve, poor fit]"
same,Potency,[2],"inconclusive: 49 µM [cytotoxic, partial curve]"
same,Potency,[4],active: 30.6 µM
OCC(O)CCl (stereo not drawn),Potency,[2],"inconclusive: 15.5 µM [cytotoxic, full curve, poor fit] and inconclusive: 195 nM [cytotoxic, full curve, poor fit]"
N[C@@H](Cc1ccc(Oc2cc(I)c(O)c(I)c2)c(I)c1)C(=O)O,Potency,[20],"inconclusive: 29.8 µM [falling, single point]"
same,Potency,[1],"inconclusive: 6.01 µM [activator, partial curve]"
same,Potency,[13],inactive
same,Potency,[17],inactive
same,Potency,[4],"inconclusive: 33.5 µM [activator, partial curve, poor fit]"
CCCOc1nn(C(=O)NS(=O)(=O)c2ccccc2C(=O)OC)c(=O)n1C,Potency,[13],inactive
O=C1CN2CCOC2(c2ccccc2Cl)c2cc(Cl)ccc2N1 (stereo not drawn),Potency,[9],inactive
same,Potency,[4],"inconclusive: 29.8 µM [activator, partial curve]"
CCNc1nc(Cl)nc(NC(C)C)n1,Potency,[20],inactive
same,Potency,[6],"inconclusive: 68.5 µM [cytotoxic, single point]"
same,"ratio activity, negative = inhibition",[8],inconclusive: -1.5%
same,activation,[9],inconclusive: 18.3%
same,Potency,[3],inactive
same,Potency,[15],inactive
O=C(O)C(F)(F)C(F)(F)C(F)(F)C(F)(F)C(F)(F)C(F)(F)F,"activity change, negative = cytotoxicity",[18],inconclusive: 42.3%
same,Potency,[9],inactive
same,max response,[10],inactive: -16.5%
same,"activity, negative = inhibition",[15],inconclusive: -40.4%
same,Potency,[19],active: 54.5 µM
same,Potency,[11],active: 48.6 µM
